± gives the standard deviation of the averaged measurements. The list shows a part of the results.
system: PfAP2-LT AP2 domain (GST-tagged); experiment: gcPBM binding intensity (ln(normalized median fluorescence intensity)); higher = stronger DNA binding
In short: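 Each value is the highest Masliner-normalised natural-log median intensity across replicate spots of either orientation of a probe. The probes were primer-extended double-stranded 36-bp intergenic genomic sequences on an Agilent 4 × 180k array, alongside negative controls, exposed for 1 h to GST-tagged P. falciparum DNA-binding domains expressed in E. coli. Bound protein was picked up with Alexa488 anti-GST antibody and scanned at 488 nm.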

“GACATAAGATAATTACACATTGTTTCCTCAATAATA [CACACA_negctrl_site1616]” and “TTTCTTTAATATATAGTGCATGTAAATTTTACAATA [GTGCAC_site9679]” are within error of each other in “gcPBM binding intensity (ln)” value: 8.61 ± 0.5 for the first, 8.4 ± 0.39 for the second.

Compared with “ATTTTAACGAATATATGTACATAAAAAAAAAAAAGA [XGTACX_site8750]”, “TAAGTAAAAAATTAAAAAGATTACAGGGGGGGAAGG [XGTACX_negctrl_site491]” is higher in “gcPBM binding intensity (ln)” value: 8.73 ± 0.57 for the first, 9.825 ± 0.064 for the second.

“AAAATAAGGACTGTTGTGCACTGGATTTGTGGTTAC [GTGCAC_site9830]” and “AAAAAAAAAAACAGTTGTACATTTATTTATATATTA [XGTACX_site217]” are within error of each other in “gcPBM binding intensity (ln)” value: 9.04 ± 0.39 for the first, 8.46 ± 0.4 for the second.

Compared with “ATAACAAAATAAAACACACACACAAATGTACAGATA [CACACA_site5358]”, “ATTTTTGTGTTTACACGTACGTGTAAATTATTTTTC [XGTACX_site1869]” is lower in “gcPBM binding intensity (ln)” value: 9.82 ± 0.33 for the first, 9 ± 0.44 for the second.

Going from “TATTCATGTTTAAAAAGTACATATTATGGTAACATT [XGTACX_site4533]” to “AGAAGCATACATCAAGCACACACACCCACACCCACA [CACACA_site8014]”, the “gcPBM binding intensity (ln)” value rises from 8.62 ± 0.37 to 10 ± 0.37.

“TCCTTTTCTTAATTTAAAAAATATAAAAAAAACGAA [CACACA_negctrl_site1821]” and “ACACGTTTATATAAAAAATTAAAATTTTTCTTATTT [CACACA_negctrl_site1523]” are within error of each other in “gcPBM binding intensity (ln)” value: 7.94 ± 0.34 for the first, 8.4 ± 0.53 for the second.

Compared with “AATACATACAGACACACACACACATATAAATAAATA [CACACA_site7642]”, “GCTCATTGAAGTTATACACACCAAATATGTAAATAT [CACACA_site7217]” is lower in “gcPBM binding intensity (ln)” value: 10.1 ± 0.38 for the first, 8.95 ± 0.34 for the second.

“AAAAGGGATAAATGTGCGCACATGTTATATATATAT [GTGCAC_site9534]” and “ACATATCTACACAGTGGTACTTCCATTAATATATAC [XGTACX_site3827]” are within error of each other in “gcPBM binding intensity (ln)” value: 9.39 ± 0.43 for the first, 9.03 ± 0.38 for the second.

“ATTTATTCAAATGGTTGTACTACAAATAAACATTAT [XGTACX_site3378]” and “TCATAAATTAAACAAACACACACGTTCTTTTATTTA [CACACA_site713]” are within error of each other in “gcPBM binding intensity (ln)” value: 8.66 ± 0.35 for the first, 8.94 ± 0.48 for the second.

“AACAATGTTGTACATACACACACACTAATAAAAAAT [CACACA_site8758]” and “CATAAATACACTGTAGCGCACACGGCCAAAAAAAAA [CACACA_site8537]” are within error of each other in “gcPBM binding intensity (ln)” value: 9.62 ± 0.39 for the first, 9.32 ± 0.42 for the second.

“ATATAATATGGTATTACACACTGTTATAAGTATGGC [CACACA_site2094]” and “TTTATTCCCGCATATAGTACATATACCATTTAATGT [XGTACX_site7011]” are within error of each other in “gcPBM binding intensity (ln)” value: 8.97 ± 0.38 for the first, 8.9 ± 0.38 for the second.

First: GTAAAAAAAGAGCACACACACAAAAACACCCACAAA [CACACA_site1292]
Second: ATAAATAAAATATGCACACAAATATAGGAAACAACA [CACACA_site2561]
The “gcPBM binding intensity (ln)” value of the first is higher: 10.3 ± 0.23 for the first, 9.38 ± 0.38 for the second.

Compared with “AAACTTGTAAGAAACACACACACACGCATATAAATA [CACACA_site6518]”, “AATATTTAAGTACTGGTGCGTGTATATAATGATTAA [GTGCAC_site9633]” is lower in “gcPBM binding intensity (ln)” value: 9.98 ± 0.099 for the first, 8.79 ± 0.38 for the second.

“TTAAATAAAATTTATTGTACATAAAATTAAATATAG [XGTACX_site3039]” and “CATAATTTACATAAAAGTACATATATATTAATGACG [XGTACX_site6247]” are within error of each other in “gcPBM binding intensity (ln)” value: 8.34 ± 0.54 for the first, 8.74 ± 0.45 for the second.

“ATCTTTTATATATTCACACATAAAATTATACAGATA [CACACA_site5277]” and “GAGTTTTAATGTAATAGTACTTTAATTATTATATAT [XGTACX_site4527]” are within error of each other in “gcPBM binding intensity (ln)” value: 8.61 ± 0.41 for the first, 8.68 ± 0.42 for the second.

“TTTTTTTTTTATTCATGTACGTATTTAAATAATTCT [XGTACX_site2651]” and “AAAAAAAAAAAAAACACACAAACAAATGAATAAATA [CACACA_site3300]” are within error of each other in “gcPBM binding intensity (ln)” value: 8.68 ± 0.44 for the first, 8.99 ± 0.54 for the second.

“AATAAATAAATAAATATATATATATATATATATATA [CACACA_negctrl_site708]” and “ATATATATATATAATGCACACATTATAAATTATGTA [CACACA_site5802]” are within error of each other in “gcPBM binding intensity (ln)” value: 9.24 ± 0.35 for the first, 9.02 ± 0.31 for the second.

“TGTATATACATAAAGTGTACGTATATTTATATATAT [XGTACX_site4320]” and “TATTTTTATTTTACATTATTTGTTTATAATTCTTAA [CACACA_negctrl_site1358]” are within error of each other in “gcPBM binding intensity (ln)” value: 8.78 ± 0.37 for the first, 8.53 ± 0.57 for the second.

“TATATATATAAGGATAGTACATATATTTATATGATT [XGTACX_site4954]” and “GTATAATAAATGATAGCACACATATGTACTTATATA [CACACA_site8188]” are within error of each other in “gcPBM binding intensity (ln)” value: 8.65 ± 0.49 for the first, 8.97 ± 0.46 for the second.

“ATGAAATTTATATCATGTACATACAAGAGAAAAAAA [XGTACX_site3326]” and “AAAATTATAAAATGGGCACACATGAATATTGTAGTA [CACACA_site5261]” are within error of each other in “gcPBM binding intensity (ln)” value: 8.8 ± 0.47 for the first, 8.9 ± 0.49 for the second.

“GACTACACACAAGGGTGTACATATATATTATATATA [XGTACX_site2247]” and “TTAACTTATTTGTAAAGTACATTAATAAAAAGAAAA [XGTACX_site1588]” are within error of each other in “gcPBM binding intensity (ln)” value: 9.1 ± 0.42 for the first, 8.34 ± 0.52 for the second.

“AGGTTATAATTGTTTTCACACATTTAAAAATGTTAT [CACACA_site5097]” and “TTATATATTTCTATTGCACACTATATTTTATGAAGA [CACACA_site2910]” are within error of each other in “gcPBM binding intensity (ln)” value: 8.82 ± 0.43 for the first, 8.77 ± 0.38 for the second.
